In the supplement of paper PMC4967469:
pIC50: −log10 of the molar value. Lines with a small IC50 respond at low doses; a limit (>, <) means that the fit lies beyond the doses tested. For AUC the same curve is integrated over the 256-fold range of doses and scaled to a fraction: 1 means no effect, lower means more sensitive. For some of these results: A top dose marked as inferred is not printed in the source and was worked back from the curve model. For some of these results: Drugs with an entry number were screened twice under separate entries, and the two screens often disagree.

Tests used:
Assay in all cases: Viability of human cancer cell lines after 72 h of drug (GDSC screen)
OSI-930 = compound: O=C(Nc1ccc(OC(F)(F)F)cc1)c1sccc1NCc1ccnc2ccccc12 [OSI-930]; details: top dose 10.24 µM
Protocol: (§1)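 Human cancer cell lines in 384-well plates, medium with 10% serum, drug for 72 h over a 256-fold dose range (nine 2-fold or five 4-fold steps up to the top dose). Adherent lines were fixed and stained with the nucleic acid dye Syto60, suspension lines read with resazurin; signal relative to control wells, capped at 0 and 100%. One two-parameter sigmoid per drug and line, fitted in a mixed model over all curves with the slope shared within a line.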

BX-912 = compound: O=C(Nc1cccc(Nc2ncc(Br)c(NCCc3cnc[nH]3)n2)c1)N1CCCC1 [BX-912]; details: top dose 10.24 µM; top dose inferred
Protocol: as §1

LAQ824 = compound: O=C(/C=C/c1ccc(CN(CCO)CCc2c[nH]c3ccccc23)cc1)NO [LAQ824]; details: top dose 1.024 µM; top dose inferred
Protocol: as §1

VNLG/124 = compound: CCCC(=O)OCc1ccc(OC(=O)/C=C(C)/C=C/C=C(C)/C=C/C2=C(C)CCCC2(C)C)cc1 [VNLG/124]; details: top dose 5.12 µM; top dose inferred
Protocol: as §1

Bleomycin = compound: Cc1c(N)nc([C@H](CC(N)=O)NC[C@H](N)C(N)=O)nc1C(=O)N[C@H](C(=O)N[C@H](C)[C@@H](O)[C@H](C)C(=O)N[C@H](C(=O)NCCc1nc(-c2nc(C(=O)NCCC[S+](C)C)cs2)cs1)[C@@H](C)O)[C@@H](OC1OC(CO)C(O)C(O)C1OC1OC(CO)C(O)C(OC(N)=O)C1O)c1cnc[nH]1 [Bleomycin]
Protocol: as §1

Tamoxifen = compound: CC/C(=C(\c1ccccc1)c1ccc(OCCN(C)C)cc1)c1ccccc1 [Tamoxifen]; details: top dose 5 µM
Protocol: as §1

NSC-87877 = compound: O=S(=O)(O)c1ccc2cc(N=Nc3cc(S(=O)(=O)O)c4cccnc4c3O)ccc2c1 [NSC-87877]; details: top dose 16 µM; top dose inferred
Protocol: as §1

Masitinib = compound: Cc1ccc(NC(=O)c2ccc(CN3CCN(C)CC3)cc2)cc1Nc1nc(-c2cccnc2)cs1 [Masitinib]; details: top dose 20 µM
Protocol: as §1

[1] = top dose 50 µM, screen: GDSC drug entry 1378, top dose inferred
[2] = top dose 64 µM, screen: GDSC drug entry 190

Cell Line: BPH-1 (prostate, adherent)
- AUC (OSI-930): 0.673
- pIC50 (OSI-930): 5.69
- AUC (BX-912): 0.456
- pIC50 (BX-912): 6.32
- AUC (LAQ824): 0.349
- pIC50 (LAQ824): 7.63
- AUC (VNLG/124): 0.982
- pIC50 (VNLG/124): < 5.29
- AUC (Bleomycin; [1]): 0.329
- pIC50 (Bleomycin; [1]): 6.00
- AUC (Bleomycin; [2]): 0.083
- pIC50 (Bleomycin; [2]): > 6.60
- AUC (Tamoxifen): 0.946
- pIC50 (Tamoxifen): < 5.30
- AUC (NSC-87877): 0.977
- pIC50 (NSC-87877): < 4.80
- AUC (Masitinib): 0.712
- pIC50 (Masitinib): 5.27

Cell Line: CAL-54 (kidney, adherent)
- AUC (OSI-930): 0.985
- pIC50 (OSI-930): < 4.99
- AUC (BX-912): 0.882
- pIC50 (BX-912): < 4.99
- AUC (LAQ824): 0.415
- pIC50 (LAQ824): 7.44
- AUC (VNLG/124): 0.973
- pIC50 (VNLG/124): < 5.29
- AUC (Bleomycin; [1]): 0.205
- pIC50 (Bleomycin; [1]): 6.44
- AUC (Bleomycin; [2]): 0.041
- pIC50 (Bleomycin; [2]): > 6.60
- AUC (Tamoxifen): 0.954
- pIC50 (Tamoxifen): < 5.30
- AUC (NSC-87877): 0.949
- pIC50 (NSC-87877): < 4.80
- AUC (Masitinib): 0.976
- pIC50 (Masitinib): < 4.70

Cell Line: CFPAC-1 (pancreas, adherent)
- AUC (OSI-930): 0.984
- pIC50 (OSI-930): < 4.99
- AUC (BX-912): 0.918
- pIC50 (BX-912): < 4.99
- AUC (LAQ824): 0.559
- pIC50 (LAQ824): 7.02
- AUC (VNLG/124): 0.983
- pIC50 (VNLG/124): < 5.29
- AUC (Bleomycin; [1]): 0.509
- pIC50 (Bleomycin; [1]): 5.48
- AUC (Bleomycin; [2]): 0.245
- pIC50 (Bleomycin; [2]): 6.19
- AUC (Tamoxifen): 0.973
- pIC50 (Tamoxifen): < 5.30
- AUC (NSC-87877): 0.982
- pIC50 (NSC-87877): < 4.80
- AUC (Masitinib): 0.909
- pIC50 (Masitinib): < 4.70

Cell Line: COLO-792 (melanoma, adherent)
- AUC (OSI-930): 0.98
- pIC50 (OSI-930): < 4.99
- AUC (BX-912): 0.973
- pIC50 (BX-912): < 4.99
- AUC (LAQ824): 0.803
- pIC50 (LAQ824): 6.30
- AUC (VNLG/124): 0.987
- pIC50 (VNLG/124): < 5.29
- AUC (Bleomycin; [1]): 0.372
- pIC50 (Bleomycin; [1]): 5.86
- AUC (Bleomycin; [2]): 0.52
- pIC50 (Bleomycin; [2]): 5.34
- AUC (Tamoxifen): 0.987
- pIC50 (Tamoxifen): < 5.30
- AUC (NSC-87877): 0.988
- pIC50 (NSC-87877): < 4.80
- AUC (Masitinib): 0.799
- pIC50 (Masitinib): 5.03

Cell Line: COR-L32 (small cell lung carcinoma, suspension)
- AUC (Bleomycin; [1]): 0.911
- pIC50 (Bleomycin; [1]): < 4.30
- AUC (Tamoxifen): 0.926
- pIC50 (Tamoxifen): < 5.30

Cell Line: COR-L105 (lung adenocarcinoma, adherent)
- AUC (OSI-930): 0.877
- pIC50 (OSI-930): < 4.99
- AUC (BX-912): 0.865
- pIC50 (BX-912): < 4.99
- AUC (LAQ824): 0.594
- pIC50 (LAQ824): 6.91
- AUC (VNLG/124): 0.955
- pIC50 (VNLG/124): < 5.29
- AUC (Bleomycin; [1]): 0.772
- pIC50 (Bleomycin; [1]): 4.62
- AUC (Bleomycin; [2]): 0.585
- pIC50 (Bleomycin; [2]): 5.14
- AUC (Tamoxifen): 0.976
- pIC50 (Tamoxifen): < 5.30
- AUC (NSC-87877): 0.979
- pIC50 (NSC-87877): < 4.80
- AUC (Masitinib): 0.879
- pIC50 (Masitinib): < 4.70

Cell Line: ChaGo-K-1 (non-small cell lung carcinoma, adherent)
- AUC (OSI-930): 0.983
- pIC50 (OSI-930): < 4.99
- AUC (BX-912): 0.96
- pIC50 (BX-912): < 4.99
- AUC (LAQ824): 0.596
- pIC50 (LAQ824): 6.91
- AUC (VNLG/124): 0.984
- pIC50 (VNLG/124): < 5.29
- AUC (Bleomycin; [1]): 0.758
- pIC50 (Bleomycin; [1]): 4.70
- AUC (Bleomycin; [2]): 0.663
- pIC50 (Bleomycin; [2]): 4.91
- AUC (Tamoxifen): 0.953
- pIC50 (Tamoxifen): < 5.30
- AUC (NSC-87877): 0.985
- pIC50 (NSC-87877): < 4.80
- AUC (Masitinib): 0.958
- pIC50 (Masitinib): < 4.70

Cell Line: GAMG (glioma, adherent)
- AUC (OSI-930): 0.884
- pIC50 (OSI-930): < 4.99
- AUC (BX-912): 0.755
- pIC50 (BX-912): 5.44
- AUC (LAQ824): 0.402
- pIC50 (LAQ824): 7.47
- AUC (VNLG/124): 0.981
- pIC50 (VNLG/124): < 5.29
- AUC (Bleomycin; [1]): 0.347
- pIC50 (Bleomycin; [1]): 5.94
- AUC (Bleomycin; [2]): 0.173
- pIC50 (Bleomycin; [2]): 6.41
- AUC (Tamoxifen): 0.98
- pIC50 (Tamoxifen): < 5.30
- AUC (NSC-87877): 0.985
- pIC50 (NSC-87877): < 4.80
- AUC (Masitinib): 0.899
- pIC50 (Masitinib): < 4.70
